{
  "source": "PubChem BioAssay AID485294",
  "about": "(National Center for Advancing Translational Sciences (NCATS), 2010)",
  "note": "Hit rate of the full screen: of about 370,000 compounds, about 150 (0.041%) were called active. The shares of active, inactive and inconclusive entries below differ from those in the screen. Calls follow the shape of the dose curve; as a rule, active = well fitted inhibition curve with a large enough effect; inconclusive = small, poorly fitted or top-dose-only effect; inactive = flat fitted curve, though single readings scatter. No potency is given beside an inconclusive call; the fits are too rough. Potency is read from the fitted curve at half-maximal effect; tags tell the direction and shape of the fitted curve.",
  "data": [
    {"target": "Beta-lactamase (Escherichia coli (strain K12)) (UniProt P00811)", "sequence (P00811 whole entry, looked up)": "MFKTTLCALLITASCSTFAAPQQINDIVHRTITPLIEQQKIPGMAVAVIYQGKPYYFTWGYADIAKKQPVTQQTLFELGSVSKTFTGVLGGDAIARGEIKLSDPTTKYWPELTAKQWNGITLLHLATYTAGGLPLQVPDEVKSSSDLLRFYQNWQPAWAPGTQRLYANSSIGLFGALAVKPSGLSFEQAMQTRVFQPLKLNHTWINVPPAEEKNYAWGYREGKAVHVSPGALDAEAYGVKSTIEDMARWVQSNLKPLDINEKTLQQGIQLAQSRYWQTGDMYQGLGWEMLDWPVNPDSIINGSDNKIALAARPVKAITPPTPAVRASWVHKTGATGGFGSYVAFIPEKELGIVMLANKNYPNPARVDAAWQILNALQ", "assay": "qHTS Inhibitors of AmpC Beta-Lactamase (assay with detergent); also: nearly all actives have a fitted effect of over 25% in size", "settings": "AmpC hydrolysis of nitrocefin, absorbance 480 nm, 0.01% Triton; series mostly up to 114 µM", "outline": "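20 mM phosphate pH 7.0 + 0.01% (detergent screen) or 0.0001% Triton X-100; 5.3 nM AmpC reagent; cpd preinc 15 min RT; nitrocefin (800 uM stock) to start; A480 q20 s × 4 min; Activity was normalised to no-enzyme and no-compound control wells.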", "values": [
      {"smiles": "Cc1cccc(NC(=O)CSc2nnc(-c3ccco3)o2)c1C", "Potency": "inconclusive [inhibitor, partial curve, poor fit]"},
      {"smiles": "Cc1cc(C)n(S(=O)(=O)c2cc(Cl)ccc2Cl)n1", "Potency": "inconclusive [inhibitor, partial curve, poor fit]"},
      {"smiles": "COc1ccc(OC)c(/C=N/NC(=O)Cc2nc3ccccc3[nH]2)c1", "Potency": "inactive"},
      {"smiles": "COc1ccc(/C=C2\\CCc3ccccc3C2=O)cc1Cn1cccn1", "Potency": "inconclusive [inhibitor, single point]"},
      {"smiles": "COC(=O)c1cc(S(=O)(=O)N2CCN(Cc3ccccc3)CC2)cn1C", "Potency": "inconclusive [inhibitor, partial curve, poor fit]"},
      {"smiles": "Nc1nc(Cl)nc(N(c2ccccc2)c2ccccc2)n1", "Potency": "inactive"},
      {"smiles": "CC(Oc1ccccc1)C(=O)Nc1nnc(S(=O)(=O)Nc2ccccc2)s1", "note": "(configuration not stated)", "Potency": "inconclusive [inhibitor, full curve, poor fit]"},
      {"smiles": "CCc1ccc(S(=O)(=O)Nc2ccc(Cl)cn2)cc1", "Potency": "inconclusive [inhibitor, partial curve, poor fit]"},
      {"smiles": "CN(Cc1ccccc1)c1nc(N)c([N+](=O)[O-])c(Nc2cccc(F)c2)n1", "Potency": "inactive"},
      {"smiles": "CC1CCCCN1CCCNc1ccc(C(CC(N)=O)NC(=O)Cc2ccc(Cl)cc2)cc1[N+](=O)[O-]", "note": "(configuration not stated)", "Potency": "inconclusive [inhibitor, partial curve, poor fit]"},
      {"smiles": "C1=C(CCNc2ncnc3c2cnn3-c2ccccc2)CCCC1", "Potency": "inconclusive [inhibitor, full curve]"},
      {"smiles": "CCN(CC)c1ccc(/C=N/N2C(=O)c3ccccc3C2=O)cc1", "Potency": "inactive"},
      {"smiles": "COc1ccc(C(=O)Nc2nc(CC(=O)NCCc3ccccc3)cs2)cc1", "Potency": "inconclusive [inhibitor, full curve, poor fit]"},
      {"smiles": "COc1c(C)cc(S(=O)(=O)NCc2ccco2)c(C)c1C", "Potency": "inactive"},
      {"smiles": "CCCC(=O)c1c[nH]c(C(=O)NCCc2ccccn2)c1", "Potency": "inconclusive [inhibitor, single point]"},
      {"smiles": "Cc1nc(C)n(CCNC(=O)c2ccco2)n1", "Potency": "inconclusive [inhibitor, full curve, poor fit]"},
      {"smiles": "Cc1cc(-n2c(C)cc(C(=O)COc3ccc(F)c(F)c3)c2C)no1", "Potency": "inactive"},
      {"smiles": "Cc1ccc(NC(=O)CN2C(=O)NC3(CCCCC3C)C2=O)cc1S(=O)(=O)N1CCCCC1", "note": "(configuration not stated)", "Potency": "inconclusive [inhibitor, partial curve, poor fit]"},
      {"smiles": "O=C(COC(=O)CSc1ccc2ccccc2c1Br)NC1CC1", "Potency": "inconclusive [inhibitor, single point]"},
      {"smiles": "Cc1ccc(C)c(CN2C(=O)c3ccccc3S(=O)(=O)c3ccc(C(=O)Nc4ccccc4C(F)(F)F)cc32)c1", "Potency": "inactive"},
      {"smiles": "CCN1CCc2c(sc(NC(=O)COc3ccccc3)c2C(=O)OC)C1", "Potency": "inconclusive [inhibitor, full curve, poor fit]"},
      {"smiles": "C=CCOc1cccc(C2NC(=O)c3ccccc3O2)c1", "note": "(configuration not stated)", "Potency": "inconclusive [inhibitor, full curve, poor fit]"},
      {"smiles": "O=C(Nc1ccc(F)cc1)C(c1ccccc1)N1CCN(S(=O)(=O)c2ccc3ccccc3c2)CC1", "note": "(configuration not stated)", "Potency": "inconclusive [inhibitor, full curve, poor fit]"},
      {"smiles": "COc1ccc(C(=O)/C=C/Nc2c(C)n(C)n(-c3ccccc3)c2=O)c(OC)c1", "Potency": "inconclusive [inhibitor, partial curve, poor fit]"},
      {"smiles": "COC(=O)c1ccccc1NC(=O)C1CC(=O)N(c2ccc(C)cc2)C1", "note": "(configuration not stated)", "Potency": "inconclusive [inhibitor, partial curve, poor fit]"},
      {"smiles": "Oc1ccccc1Oc1ncc(Br)c(Cl)n1", "Potency": "inactive"},
      {"smiles": "O=C(CSc1nc2ccccc2s1)N1CCCCC1", "Potency": "inconclusive [inhibitor, full curve, poor fit]"},
      {"smiles": "Cc1ccc(NC(=O)/C=C/c2ccccc2)c(Br)c1", "Potency": "inactive"},
      {"smiles": "CSc1ncccc1C(=O)NC(C)C1CC2CCC1C2", "note": "(configuration not stated)", "Potency": "inconclusive [inhibitor, partial curve, poor fit]"},
      {"smiles": "O=C(Cc1ccc(Cl)cc1)N/N=C/c1cccs1", "Potency": "inactive"},
      {"smiles": "O=C(/C=C/N1CCOCC1)c1coc2ccccc12", "Potency": "inactive"},
      {"smiles": "CCn1c(SCC(=O)Nc2ccc(F)cc2)nnc1C1CC1", "Potency": "inconclusive [inhibitor, partial curve, poor fit]"},
      {"smiles": "CCCCn1c(N)c(N(CCC(C)C)C(=O)COC(=O)c2cccnc2SC)c(=O)[nH]c1=O", "Potency": "inconclusive [inhibitor, partial curve, poor fit]"},
      {"smiles": "O=C(O)C(=O)/C(=C\\c1cccc2ccccc12)c1ccc2ccccc2n1", "Potency": "inconclusive [inhibitor, full curve, poor fit]"},
      {"smiles": "COc1cc(CN=Cc2c(O)n(C(C)(C)C)c(=O)[nH]c2=O)cc(OC)c1", "Potency": "inconclusive [inhibitor, single point]"},
      {"smiles": "CNS(=O)(=O)c1ccc(NC(=O)c2ccccn2)cc1", "Potency": "inconclusive [inhibitor, partial curve, poor fit]"},
      {"smiles": "CCCSc1n[nH]c(NC(C)=O)n1", "Potency": "inconclusive [inhibitor, full curve, poor fit]"},
      {"smiles": "CCS(=O)(=O)NCc1ccc2c(c1)cc(C)n2C", "Potency": "inconclusive [inhibitor, partial curve]"},
      {"smiles": "O=C(NCCN1CCOCC1)c1ccc(Cl)cc1O", "Potency": "inconclusive [inhibitor, full curve, poor fit]"},
      {"smiles": "CCCCn1c(N)c(N(CC)C(=O)c2cccc(S(=O)(=O)N3CCN(C)CC3)c2)c(=O)[nH]c1=O", "Potency": "inconclusive [inhibitor, partial curve, poor fit]"},
      {"smiles": "Cc1nn(-c2ccccc2)c(C)c1/C=N/NC(=O)c1cc(-c2cccs2)[nH]n1", "Potency": "inconclusive [inhibitor, full curve, poor fit]"},
      {"smiles": "CC(C)c1onc(C(=O)N2CCN(C(c3ccccc3)c3ccccc3)CC2)c1[N+](=O)[O-]", "Potency": "inconclusive [inhibitor, partial curve]"}
    ]}
  ]
}
